For the experiment, the system named is 958767-090-R-J1-PDC spheroid growth. Put plainly: Anticancer human tumor 958767-090-R-J1-PDC patient-derived head and neck squamous carcinoma cell line growth inhibition [IpAb]. To be noted: spheroids with HUVEC and MSC; for viability, T/C: stronger effect = lower value. An excerpt:
Combinatorial screen of targeted agents with ipatasertib and abemaciclib in multi-cell type tumor spheroids
A high-throughput screen of multi-cell type tumor spheroids was designed to identify active combinations of targeted small molecules and ipatasertib or abemaciclib. Complex spheroids include a stromal component modeled by human endothelial cells (HUVEC) and fibroblasts modeled by human mesenchymal stem cells (MSCs). The concentration ranges selected for each drug and investigational agent were based upon clinically achievable concentrations if the clinical Cmax of the agent was known.
Compounds. The drugs and investigational agents: ipatasertib (NSC767898), abemaciclib(NSC768073), selumetinib (NSC741078), trametinib (758246), adavosertib (NSC754352), everolimus (NSC733504), sapanisertib (NSC764658), vemurafenib (NSC761431), venetoclax (NSC766270), copanlisib (NSC809693), apelisib (NSC765974), palbociblib (NSC758247), vemurafenib (NSC761431), dabrafenib (NSC764134), ravoxertinib (NSC781343), BMS-387032 (NSC767048), sotorasib (NSC818433), talazoparib (NSC767125) and afursertib (NSC778305), were obtained from the National Cancer Institute (NCI) Developmental Therapeutics Program Chemical Repository. The FDA-approved anticancer drug set is available from the NCI Developmental Therapeutics Program. […] The stock solutions were prepared in dimethyl sulfoxide (DMSO, Sigma-Aldrich, St. Louis, MO, cat. D2650) at 800-fold the tested concentration and stored at -70 degrees C prior to their use. All drugs and investigational agents were tested over a range starting from a high concentration at or near the clinical Cmax and decreasing in half-log increments. If the clinical Cmax for an agent had not been determined, the highest concentration tested was 10 microM.
NCI60 Cell Culture. NCI60 cell lines were obtained from the NCI Developmental Therapeutics Program Tumor Repository. For each lot of cells, the Repository performed Applied Biosystems AmpFLSTR Identifiler testing with PCR amplification to confirm consistency with the published Identifier STR profile for each cell line. Cells were kept in continuous culture for no more than 20 passages. The optimal seeding densities for each of the cell lines at each time point assessed were determined prior to performing the concentration response studies. Briefly, the NCI60 human tumor lines were grown as monolayers in RPMI 1640 medium supplemented with 10% FBS and 2 mmol/L L-glutamine.
An additional 9 lines were from the NCI60 cell line panel including MDA-MB-231 breast carcinoma, MDA-MB-468 breast carcinoma, MCF7 breast carcinoma, Hs578T breast carcinoma, MALME-3M melanoma, SK-MEL-2 melanoma, SK-OV-3 ovarian carcinoma, DU-145 prostate carcinoma, PC-3 prostate carcinoma, all cell lines along with major genetic alterations are listed on Table 2. Pooled donor human umbilical vein endothelial cells (HUVEC, Lonza, cat. CC-2519) and human mesenchymal stem cells (hMSC, Lonza, cat. PT-2501) were purchased from Lonza (Walkersville, MD).
PDMR cell lines were grown in complete medium (DC medium): Dulbecco's modified Eagle's medium (DMEM)/F12 supplemented with 5% fetal bovine serum (FBS), 2 mM L-glutamine, 100 U/mL penicillin and 100 µg/ml streptomycin, 0.4 µg/ml hydrocortisone, 10 ng/ml epidermal growth factor (EGF) recombinant human protein, 24 µg/mL adenine, and 0.1 mg/mL primocin. During culture from frozen stock vials, PDMR cells were cultured in the same medium containing 10 µM Y-27632 (see Table 3). The PDCs were cultured in complete DMEM/F12 media without 10 microM Y-27632 dihydrochloride for at least two passages prior to the screen. The pooled donor HUVEC and hMSC were cultured in endothelial cell growth medium 2 (PromoCell, Heidelberg, Germany, cat. C-22011) and mesenchymal stem cell growth medium 2 (PromoCell, cat. C-28009), respectively. For all experiments, HUVEC and hMSC were used at passages </=5.
[…]

Structures are written as SMILES. Some entries of the source have several records that differ or are many. They are shown here; other results are not. An entry can have further records. The values listed for one entry repeat one measurement across runs, samples, wells, individuals or studies.

Usually viability, T/C stands for the ratio of treated to control. In general, IC50 refers to the midpoint of a concentration-inhibition curve.
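Also: spheroids exposed to agents for 7 days.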

Consider `CC(C)NCC(C(=O)N1CCN(c2ncnc3c2C(C)CC3O)CC1)c1ccc(Cl)cc1` (configuration not stated), for which the viability, T/C (compound alone 0.316 µM) is listed as 83.4, 62.7, 69.5, 73.4, 69, 56.1, 54.7, 75.7, 84.4, 63.7, 65.7, 73.6, 81.7%; the viability, T/C (compound alone 3.16 µM) was 59.8, 43.9, 54.1, 60.2, 66.5, 47, 39.9, 56.2, 64.7, 51, 51.9, 54.7, 70.4%; the viability, T/C (compound alone 10 µM) is reported as 54, 35.2, 48.9, 53.3, 57.7, 36.1, 28.2, 55, 70.9, 37.7, 35.8, 41.1, 64.5%. Further, the IC50 (compound alone, run of 06/01/2021) was 7.97 µM, 1.1 µM, 933 nM, 7.73 µM, > 10 µM, 670 nM, 745 nM, 1.64 µM, 1.02 µM, 2.86 µM.
Consider `CCN1CCN(Cc2ccc(Nc3ncc(F)c(-c4cc(F)c5nc(C)n(C(C)C)c5c4)n3)nc2)CC1`, for which the viability, T/C (compound alone 0.01 µM) is reported as 90.9, 82.5, 84.7, 86.8, 101, 87.9, 71.2, 93.5, 86.5, 75.9, 79.4, 78.7, 83.6%; the viability, T/C (compound alone 0.0316 µM) is recorded as 86.7, 93.3, 63.6, 86.3, 85, 71.7, 71, 83.4, 78, 71.3, 77, 81.1, 91.9%; the viability, T/C (compound alone 0.316 µM) is 75.8, 68.4, 65.8, 69.4, 70.5, 58.6, 63.5, 74.6, 56.2, 74.8, 81.6, 74.5, 73.8%.

The record behind these values is PubChem BioAssay AID2060336 (Molecular Pharmacology Branch, DTP, NCI, 2025).
